We go through 2 compounds from patent US20100126880A1 (priority 2006, published 2010).

The test system of assay [1] is double-stranded salmon sperm DNA.

On to `O=C1c2ccc3c4c(ccc(c24)C(=O)N1CCOCCOCCOCCCC1COc2cscc2O1)C(=O)N(CCOCCOCCOCCCC1COc2cscc2O1)C3=O` (stereo not shown) [Compound 4c], for which the “decrease in ND absorption band at 363 and 387 nm” value in assay [1] worked out at 42%.
With “N[3-(imidazol-1-yl)propyl]-N′-[8-((2,3-dihydrothieno[3,4-b][1,4]dioxin-3-yl)methoxy)-3,6-dioxaoctyl]-1,4,5,8-naphthalenetetracarboxydiimide complex with Os(bpy)2Cl2 [EDOT-ND-Os]”, in assay [1], the “decrease in ND absorption bands at 362 and 383 nm” value is 40%; the “red shifts of ND absorption bands” value was about 3 nm. In addition, in the assay on dsDNA, the decrease of fluorescence was found to be 50%.
